Among all 390,000 compounds or so, about 4,700 (1.2%) were called active. Inconclusive results, whose numbers are uncertain, are shown with a selection of clear calls. Calls come from the whole dose curve; as a rule, active = well fitted inhibition curve with a large enough effect; inconclusive = small, poorly fitted or top-dose-only effect, or another doubt; inactive = no such curve, though single readings can be large or run the other way. Where the call is inconclusive, the potency comes from a doubtful curve fit.
What follows are compounds tested against DNA polymerase eta (Homo sapiens) (UniProt Q9Y253) (assay: qHTS for Inhibitors of Polymerase Eta). Conditions: recombinant Pol eta, fluorescent DNA replication assay; series mostly up to 114 µM.
How it was run: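 Fluorescent replication assay: 50 nM final substrate added after a 15 min room-temperature compound preincubation with 10 nM enzyme. Signal taken at 0 min and again at 10 min.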
Potency is the fitted concentration of half-maximal effect; tags give direction and shape of the fitted curve.

Sequence of UniProt Q9Y253 (Q9Y253 whole entry, looked up): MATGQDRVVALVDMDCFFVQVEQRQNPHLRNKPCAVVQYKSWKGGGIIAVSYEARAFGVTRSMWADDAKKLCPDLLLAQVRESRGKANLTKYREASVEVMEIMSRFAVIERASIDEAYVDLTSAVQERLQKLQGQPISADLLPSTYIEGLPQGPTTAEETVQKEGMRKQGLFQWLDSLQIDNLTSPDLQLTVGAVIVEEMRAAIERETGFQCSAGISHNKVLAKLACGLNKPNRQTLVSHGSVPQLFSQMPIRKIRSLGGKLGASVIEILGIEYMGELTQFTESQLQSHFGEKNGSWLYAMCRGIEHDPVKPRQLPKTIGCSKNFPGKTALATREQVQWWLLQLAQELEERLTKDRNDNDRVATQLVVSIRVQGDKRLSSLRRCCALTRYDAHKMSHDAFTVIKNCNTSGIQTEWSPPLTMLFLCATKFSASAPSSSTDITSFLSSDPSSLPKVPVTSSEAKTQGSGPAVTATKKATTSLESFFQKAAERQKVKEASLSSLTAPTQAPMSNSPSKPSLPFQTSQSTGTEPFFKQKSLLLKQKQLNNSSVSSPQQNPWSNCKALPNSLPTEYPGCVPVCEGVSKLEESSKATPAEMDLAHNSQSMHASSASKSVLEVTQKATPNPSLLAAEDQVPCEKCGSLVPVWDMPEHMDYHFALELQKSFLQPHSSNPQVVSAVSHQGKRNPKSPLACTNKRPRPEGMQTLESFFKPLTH

Row | SMILES | Potency
1 | CC(=O)c1cnn(-c2nc3c(C)cccc3s2)c1C | inconclusive: 39.8 µM [inhibitor, partial curve, poor fit]
2 | CCc1cccc(NC(=O)CCS(=O)(=O)c2ccc(C)cc2)c1 | inactive
3 | CCc1ccc(C2c3c(n[nH]c3C)C(=O)N2c2ccc(C)cc2)cc1 (configuration not stated) | inconclusive: 79.4 µM [inhibitor, partial curve, poor fit]
4 | Cc1nn(-c2ccc(Cl)cc2)c(Cl)c1/C=N/NC(=O)c1ccc(NS(=O)(=O)c2cccs2)cc1 | active: 79.4 µM
5 | Cc1cc(-c2cc(-c3ccc(Cl)cc3)nc(N)c2C#N)co1 | inconclusive: 20 µM [inhibitor, partial curve, poor fit]
6 | COc1ccc(N(CC(=O)Nc2ccc(OC)cc2OC)S(=O)(=O)c2ccccc2)cc1 | inconclusive: 17.8 µM [inhibitor, partial curve, poor fit]
7 | COc1ccc(-c2nn(-c3ccccc3)cc2/C=C(\CC(=O)O)c2nc3ccccc3s2)cc1OC | active: 56.2 µM
8 | COc1ccc(-n2c(=O)c3c4c(sc3n(Cc3cc(=O)n5c(C)cccc5n3)c2=O)CCC4)c(OC)c1 | inconclusive: 89.1 µM [inhibitor, single point]
9 | Nc1nc(SCC(=O)N2N=C3/C(=C\c4ccco4)CCCC3C2c2ccco2)n[nH]1 (configuration not stated) | inconclusive: 56.2 µM [inhibitor, partial curve, poor fit]
10 | CCCCN1C[C@H](COC(=O)CCC)Oc2cccc(F)c2S1(=O)=O | inactive
11 | COc1ccc(S(=O)(=O)N2CCOCC2)cc1NC(=O)Cc1coc2cc(C)ccc12 | inconclusive: 39.8 µM [inhibitor, partial curve, poor fit]
12 | Cc1ccc(Cl)cc1NC(=O)CCS(=O)(=O)c1ccc(Br)s1 | inconclusive: 89.1 µM [inhibitor, partial curve]
13 | O=C(Nc1cccc(F)c1)C1CCCN1C(=O)OCc1ccccc1 (configuration not stated) | inactive
14 | Cc1nn(-c2ccccc2)c2nc(N)c(C#N)c(-c3ccc(O)c(O)c3)c12 | active: 50.1 µM
15 | Cc1cc(C(=O)N2CCCC(N3CCN(Cc4ccc5c(c4)OCO5)CC3)C2)n[nH]1 (configuration not stated) | inconclusive: 89.1 µM [inhibitor, partial curve, poor fit]
16 | NS(=O)(=O)c1ccc(CNC(=O)c2cc(-c3ccccn3)nc3ccc(Cl)cc23)cc1 | inconclusive: 79.4 µM [inhibitor, partial curve, poor fit]
17 | CCN(CC)CCOC(=O)c1ccc(NC(=O)c2nn(-c3ccc(C)cc3)c(=O)c3c2c2ccccc2n3C)cc1 | active: 79.4 µM
